The text below walks through data of PubChem BioAssay AID1508642 (National Center for Advancing Translational Sciences (NCATS), 2021).

The campaign covered roughly 43,000 compounds. About 200 (0.47%) were called active. Not shown: some 12% with an inconclusive outcome. Calls follow the shape of the dose curve; as a rule, active = well fitted cell-killing curve with a large enough effect; inconclusive = small, poorly fitted or top-dose-only effect, or effect the other way; inactive = flat fitted curve, though single readings scatter. Some of the results follow.
% is scaled to controls: 0 for no effect and ±100 for the full control effect.

A short description of this experiment: Cell viability qHTS assay in S16 Pmp22-F2sN cells. Also: nearly all actives have a fitted effect of over 65% in size. As to conditions: S16 Pmp22-F2sN Schwann cells (luciferase reporters placed in the Pmp22 gene) viability, CellTiter-Glo, 24 h; series mostly up to 57.5 µM; activity change, negative = cytotoxicity: at the top concentration. The method in brief:
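Rat S16 Schwann reporter line, 24 h treatment with library compounds delivered at 23 nL per well. Cell viability by CellTiter-Glo luminescence.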
On the technique in general: Quantitative high-throughput screening tests each substance at several concentrations.
As for `Cc1nn2c(=O)cc(COC(=O)c3ccc(NC(=O)c4cccs4)cc3)nc2s1`, the “activity change, negative = cytotoxicity” value was inactive: -6.26%.

On to `CCN(C(=O)Cn1nc(Cc2ccncc2)c2ccccc2c1=O)c1cccc(C(F)(F)F)c1`, for which the “activity change, negative = cytotoxicity” value is inactive: 8.09%.

`CC(C)Cn1c(=O)c2ccccc2n2c(CCC(=O)Nc3ccc(F)c(F)c3)nnc12`: the “activity change, negative = cytotoxicity” value is inactive: 3.93%.

Take `Cc1ccc(S(=O)(=O)N2CCC(C(=O)Nc3ccc(Oc4ccccc4)cc3)CC2)cc1`: the “activity change, negative = cytotoxicity” value is inactive: -2.16%.

Turning to `COc1ccccc1N1CCN(S(=O)(=O)c2ccc(-c3cnc(C4CC4)o3)cc2)CC1`, the “activity change, negative = cytotoxicity” value was inactive: 8.34%.

As for `Cc1cc(Cl)ccc1NC(=O)c1cc2ccccn2n1`, the “activity change, negative = cytotoxicity” value was inactive: 10.9%.

On to `Cc1ccc(CNC(=O)CSC2=Nc3ccccc3C3=NC(C)C(=O)N23)cc1` (configuration not stated), for which the “activity change, negative = cytotoxicity” value is inactive: 1.63%.

As to `Cc1ccc2occ(CC(=O)N3CCN(c4cccc(Cl)c4)CC3)c2c1`, the “activity change, negative = cytotoxicity” value is inactive: -16.7%.

With `CCOc1ccccc1NC(=O)CN1CCN(S(=O)(=O)c2ccc(Br)cc2)CC1`, the “activity change, negative = cytotoxicity” value was inactive: -1.77%.

`CCS(=O)(=O)N1CCc2cc(C(=O)Nc3ccc(OC)cc3OC)ccc21`: the “activity change, negative = cytotoxicity” value was inactive: 6.79%.

As for `CCC1CCCCN1Cc1cn2c(-c3ccc(Br)cc3)nnc2s1` (configuration not stated), the “activity change, negative = cytotoxicity” value was inactive: 13.1%.

Take `CC(=O)c1cccc(NC(=O)c2nc(-c3ccccc3)n(-c3cccc(C)c3)n2)c1`: the “activity change, negative = cytotoxicity” value was inactive: -21.2%.

Consider `COc1c(Cl)cc(Cl)cc1CNCCSc1nnnn1C`, for which the “activity change, negative = cytotoxicity” value is inactive: -0.282%.

Consider `O=C(Nc1nc2n(n1)C(c1ccc(F)cc1)C=C(c1ccccc1)N2)c1cccc([N+](=O)[O-])c1` (configuration not stated), for which the “activity change, negative = cytotoxicity” value was inactive: -22.3%.

Regarding `CCC(C)NC(=O)CSc1nc2cc3c(cc2c(=O)n1CCCCCC(=O)NCc1ccc(OC)cc1)OCO3` (configuration not stated), the “activity change, negative = cytotoxicity” value is inactive: 3.94%.

In the case of `Cc1cccc(C(=O)Nc2cccc(OCc3cc(=O)n4ccccc4n3)c2)c1`, the “activity change, negative = cytotoxicity” value is inactive: 12.7%.

Regarding `CCc1cccc(NC(=O)CCS(=O)(=O)c2cc3c4c(c2)CCN4C(=O)CC3)c1`, the “activity change, negative = cytotoxicity” value was inactive: -29.8%.

In the case of `Cc1c(Cl)cccc1-n1nc(C)c2c(C)cc(=O)n(CC(=O)NCc3ccccc3)c21`, the “activity change, negative = cytotoxicity” value was inactive: -2.92%.

With `COc1cc2c(cc1OC)C(COc1ccccc1OC)N(C(=O)c1ccccc1OC)CC2` (configuration not stated), the “activity change, negative = cytotoxicity” value is inactive: -8.29%.

As for `Cc1cc(C)c(NC(=O)Cn2c(=O)n(Cc3ccccc3)c(=O)c3c(C)c(C(=O)N(C)C)sc32)c(C)c1`, the “activity change, negative = cytotoxicity” value was inactive: 2.91%.

Take `COc1cc2c(=O)c(S(=O)(=O)c3ccccc3)cn(CC(=O)Nc3ccccc3C)c2cc1OC`: the “activity change, negative = cytotoxicity” value was inactive: 18.7%.

For the molecule `Cc1ccc(NC(=O)Cn2nnc3sc4c(c3c2=O)CCCC4)c(C)c1`, the “activity change, negative = cytotoxicity” value was inactive: -10.7%.

For the molecule `O=C(/C=C/c1ccc(Cl)cc1)Nc1nc(-c2cccs2)ns1`, the “activity change, negative = cytotoxicity” value is inactive: 3.01%.

As for `CCCCc1ccc(NC(=O)CSc2nnc3[nH]c(=O)cc(C)n23)cc1`, the “activity change, negative = cytotoxicity” value is inactive: 4.79%.

Take `CCCN1CCN(CCCNC(=O)c2ccc(CS(=O)c3ccc(OC)cc3)o2)CC1` (configuration not stated): the “activity change, negative = cytotoxicity” value is inactive: 4.2%.

On to `CCCN(CCC)C(=O)CSc1nnc2cc(C)c3ccccc3n12`, for which the “activity change, negative = cytotoxicity” value was inactive: 3.46%.

For the molecule `CCN(CC)CCNC(=O)c1cc2c(=O)oc3ccc(C)cc3c2s1`, the “activity change, negative = cytotoxicity” value was inactive: 21.6%.

Take `COc1cc(OC)c(NC(=O)CCNS(=O)(=O)c2ccc3c(c2)oc(=O)n3C)cc1Cl`: the “activity change, negative = cytotoxicity” value was inactive: 7.68%.

Turning to `CC(=O)N1CCCc2cc(S(=O)(=O)N(Cc3ccccc3)C(C)C)ccc21`, the “activity change, negative = cytotoxicity” value was inactive: -18.2%.

Turning to `COc1cccc(C(C(=O)NCc2ccccc2)N(C(=O)Cn2nnc3ccccc32)c2cccc(C(C)=O)c2)c1` (configuration not stated), the “activity change, negative = cytotoxicity” value is inactive: -4.24%.

In the case of `Cc1ccc(C)c(CSc2cn(CCNC(=O)c3ccccc3F)c3ccccc23)c1`, the “activity change, negative = cytotoxicity” value is inactive: -3.21%.

As to `Cc1cccc(Oc2ccc(NC(=O)CCC(=O)OCC(=O)c3ccc(Br)cc3)cc2)c1C`, the “activity change, negative = cytotoxicity” value was inactive: 3.8%.

On to `COc1cc(C2c3c(-c4ccccc4O)n[nH]c3C(=O)N2CCO)ccc1OCC(C)C` (configuration not stated), for which the “activity change, negative = cytotoxicity” value is inactive: -0.277%.

Take `COc1ccc(Cc2c(C)nn(-c3nc(C)c(C(=O)Nc4ccc(C)cc4C)s3)c2C)cc1`: the “activity change, negative = cytotoxicity” value was inactive: 1.86%.

As for `Clc1ccccc1-c1nnc(-c2ccccc2CNc2ccccc2)o1`, the “activity change, negative = cytotoxicity” value is inactive: -0.67%.

Regarding `COc1ccc(NC(=O)C2CCC(CNS(=O)(=O)c3cccs3)CC2)cc1OC` (configuration not stated), the “activity change, negative = cytotoxicity” value was inactive: 6.23%.

`Cc1ccc(C)c(N2CCN(S(=O)(=O)c3csc(C(N)=O)c3)CC2)c1`: the “activity change, negative = cytotoxicity” value is inactive: -14.5%.

Turning to `CCn1nnc2cc(C(=O)Nc3cccc(C)c3C)ccc21`, the “activity change, negative = cytotoxicity” value is inactive: -17.5%.

For `Cc1ccccc1CSCCNC(=O)CN(c1ccccc1)S(=O)(=O)N(C)C`, the “activity change, negative = cytotoxicity” value is inactive: -3.47%.

In the case of `CCN1CCc2c(sc(-n3cccc3)c2C(C)NC(=O)Nc2ccccc2C)C1` (configuration not stated), the “activity change, negative = cytotoxicity” value is inactive: -11.4%.

As to `Cc1cccc(CC(=O)Nc2cccc(-c3nc4cccnc4s3)c2)c1`, the “activity change, negative = cytotoxicity” value was inactive: 0.554%.

As for `Cc1cccc(C)c1NC(=O)CN1C(=O)c2ccccc2Sc2ncccc21`, the “activity change, negative = cytotoxicity” value is inactive: 0.923%.

Regarding `COc1ccc(C)cc1NC(=O)CN1CCN(S(=O)(=O)c2ccc(Br)cc2)CC1`, the “activity change, negative = cytotoxicity” value is inactive: 7.34%.

Consider `COC(=O)c1cc2sc(C)cc2n1CC(=O)Nc1ccc(C)cc1Cl`, for which the “activity change, negative = cytotoxicity” value was inactive: 0.573%.

As to `COc1ccc(-c2noc(CSc3nnc(-c4ccccc4)n3C)n2)cc1`, the “activity change, negative = cytotoxicity” value was inactive: -0.167%.

For `CCCOC(=O)c1ccc(Nc2c(C(=O)OCC)cnc3c(C)cc(Cl)cc23)cc1`, the “activity change, negative = cytotoxicity” value was inactive: 13.4%.

Take `CC(C)OCCCNC(=O)c1nn(C)c2c1CSc1ccccc1-2`: the “activity change, negative = cytotoxicity” value is inactive: 1.8%.

Regarding `Cc1ccc(CCNC(=O)c2cc3c(=O)n(C)c4ccccc4c3n2C)cc1`, the “activity change, negative = cytotoxicity” value is inactive: 1.48%.

For `Cc1cccc(N2CCN(c3nc4ccccc4c4nc(-c5cccnc5)nn34)CC2)c1C`, the “activity change, negative = cytotoxicity” value is inactive: 12.4%.

Regarding `CC(C)CCn1c(=O)c2sccc2n2c(CCCC(=O)NC(C)c3ccccc3)nnc12` (configuration not stated), the “activity change, negative = cytotoxicity” value is inactive: 11.4%.

Take `CC(=O)c1cccc(NC(=O)CSc2nc3c(=O)n(C)c(=O)n(C)c3n2C)c1`: the “activity change, negative = cytotoxicity” value was inactive: 5.77%.

With `Cc1cccc(OCC(=O)Nc2ccccc2C(=O)OCc2cc(=O)n3nc(C4CC4)sc3n2)c1`, the “activity change, negative = cytotoxicity” value was inactive: 10%.

As for `CCOC(=O)c1ccc(NC(=O)c2c(NCc3cc(OC)ccc3OC)sc3c2CCC3)cc1`, the “activity change, negative = cytotoxicity” value is inactive: 6.16%.

In the case of `CCc1cnc2c(c1SCCC(C)C)c(=O)n(C)c(=O)n2C`, the “activity change, negative = cytotoxicity” value is inactive: 2.91%.

Take `CCn1cc(C(=O)Nc2ccc(C(C)C)cc2)c2cc(OC)c(OC)cc2c1=O`: the “activity change, negative = cytotoxicity” value is inactive: -7.85%.

Turning to `CCc1cccc(N2C(=O)N(Cc3c(F)cccc3Cl)c3ccccc3S2(=O)=O)c1`, the “activity change, negative = cytotoxicity” value is inactive: 18.1%.

Regarding `Cc1ccc2cc3cc(C(=O)N(C)c4ccccc4C)oc3nc2c1`, the “activity change, negative = cytotoxicity” value is inactive: 3.5%.

With `CCCCNC(=O)c1ccc2c(c1)NC(=O)C(CS(=O)(=O)Cc1ccc(F)cc1Cl)N2` (configuration not stated), the “activity change, negative = cytotoxicity” value is inactive: 2.15%.

In the case of `CC(=O)Nc1ccc(S(=O)(=O)N(Cc2ccccc2)Cc2ccccc2)cc1`, the “activity change, negative = cytotoxicity” value was inactive: -10.1%.

Turning to `CCOc1ccccc1-c1nc(C(N)=O)c2c(n1)n(-c1ccc3c(c1)OCO3)c(=O)n2C`, the “activity change, negative = cytotoxicity” value is inactive: 4.41%.

For the molecule `C=Cc1ccc(Cn2c(=O)n(CC3CCC(C(=O)NC(C)C)CC3)c(=O)c3sccc32)cc1` (configuration not stated), the “activity change, negative = cytotoxicity” value is inactive: -0.549%.

As to `O=C(NCc1ccco1)c1ccc2c(c1)N(Cc1ccccc1F)C(=O)c1ccccc1S2(=O)=O`, the “activity change, negative = cytotoxicity” value was inactive: -24.6%.
